Results from paper PMC9911399, “Two distinct binding modes provide the RNA-binding protein RbFox with extraordinary sequence specificity”.
Numbering of substitutions follows the chain as printed; changes in the protein carry UniProt numbers. Some of the results follow.

T1: RBFOX1 RRM RbFoxmut (Fox-RRM*) (Homo sapiens, UniProt Q9NWB1 109-208, R118D;E147R;N151S;E152T)
T1 sequence: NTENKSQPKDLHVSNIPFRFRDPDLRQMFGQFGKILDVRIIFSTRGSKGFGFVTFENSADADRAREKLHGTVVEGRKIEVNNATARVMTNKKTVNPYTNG

B1: UCAAAAA (DNA:RNA)
RNA: GGGAGACCGGAAUUCAGAUUGUCCUCAAAAAUUAAAUCCCGUCGUAGCCACCA
DNA 1: CAATCTGAATTCCGGTCTCCC
DNA 2: TGGTGGCTACGACGGGATT
B2: CCGUCGC (DNA:RNA)
RNA: B1 RNA with U25C, A27G, A28U, A29C, A30G, A31C
DNA 1: CAATCTGAATTCCGGTCTCCC
DNA 2: TGGTGGCTACGACGGGATT
B3: UUGUCGU (DNA:RNA)
RNA: B1 RNA with C26U, A27G, A28U, A29C, A30G, A31U
DNA 1: CAATCTGAATTCCGGTCTCCC
DNA 2: TGGTGGCTACGACGGGATT
B4: ACCCUGA (DNA:RNA)
RNA: B1 RNA with U25A, A27C, A28C, A29U, A30G
DNA 1: CAATCTGAATTCCGGTCTCCC
DNA 2: TGGTGGCTACGACGGGATT
B5: CCCGGUC (DNA:RNA)
RNA: B1 RNA with U25C, A27C, A28G, A29G, A30U, A31C
DNA 1: CAATCTGAATTCCGGTCTCCC
DNA 2: TGGTGGCTACGACGGGATT
B6: GGCUCAG (DNA:RNA)
RNA: B1 RNA with U25G, C26G, A27C, A28U, A29C, A31G
DNA 1: CAATCTGAATTCCGGTCTCCC
DNA 2: TGGTGGCTACGACGGGATT
B7: CCUAACC (DNA:RNA)
RNA: B1 RNA with U25C, A27U, A30C, A31C
DNA 1: CAATCTGAATTCCGGTCTCCC
DNA 2: TGGTGGCTACGACGGGATT
B8: CCCUACC (DNA:RNA)
RNA: B1 RNA with U25C, A27C, A28U, A30C, A31C
DNA 1: CAATCTGAATTCCGGTCTCCC
DNA 2: TGGTGGCTACGACGGGATT
B9: GAAUAGU (DNA:RNA)
RNA: B1 RNA with U25G, C26A, A28U, A30G, A31U
DNA 1: CAATCTGAATTCCGGTCTCCC
DNA 2: TGGTGGCTACGACGGGATT
B10: UUAUUUC (DNA:RNA)
RNA: B1 RNA with C26U, A28U, A29U, A30U, A31C
DNA 1: CAATCTGAATTCCGGTCTCCC
DNA 2: TGGTGGCTACGACGGGATT
B11: AGCCACU (DNA:RNA)
RNA: B1 RNA with U25A, C26G, A27C, A28C, A30C, A31U
DNA 1: CAATCTGAATTCCGGTCTCCC
DNA 2: TGGTGGCTACGACGGGATT
B12: AAACUCA (DNA:RNA)
RNA: B1 RNA with U25A, C26A, A28C, A29U, A30C
DNA 1: CAATCTGAATTCCGGTCTCCC
DNA 2: TGGTGGCTACGACGGGATT
B13: CUUUCCA (DNA:RNA)
RNA: B1 RNA with U25C, C26U, A27U, A28U, A29C, A30C
DNA 1: CAATCTGAATTCCGGTCTCCC
DNA 2: TGGTGGCTACGACGGGATT
B14: CCAUAAC (DNA:RNA)
RNA: B1 RNA with U25C, A28U, A31C
DNA 1: CAATCTGAATTCCGGTCTCCC
DNA 2: TGGTGGCTACGACGGGATT
B15: AAAGCCG (DNA:RNA)
RNA: B1 RNA with U25A, C26A, A28G, A29C, A30C, A31G
DNA 1: CAATCTGAATTCCGGTCTCCC
DNA 2: TGGTGGCTACGACGGGATT
B16: GACUCAC (DNA:RNA)
RNA: B1 RNA with U25G, C26A, A27C, A28U, A29C, A31C
DNA 1: CAATCTGAATTCCGGTCTCCC
DNA 2: TGGTGGCTACGACGGGATT
B17: AUGCAAU (DNA:RNA)
RNA: B1 RNA with U25A, C26U, A27G, A28C, A31U
DNA 1: CAATCTGAATTCCGGTCTCCC
DNA 2: TGGTGGCTACGACGGGATT
B18: CCUGAGU (DNA:RNA)
RNA: B1 RNA with U25C, A27U, A28G, A30G, A31U
DNA 1: CAATCTGAATTCCGGTCTCCC
DNA 2: TGGTGGCTACGACGGGATT
B19: AAACCUG (DNA:RNA)
RNA: B1 RNA with U25A, C26A, A28C, A29C, A30U, A31G
DNA 1: CAATCTGAATTCCGGTCTCCC
DNA 2: TGGTGGCTACGACGGGATT
B20: CAUCUCC (DNA:RNA)
RNA: GGGAGACCGGAAUUCAGAUUGUCCCAUCUCCUUAAAUCCCGUCGUAGCCACCA
DNA 1: CAATCTGAATTCCGGTCTCCC
DNA 2: TGGTGGCTACGACGGGATT
B21: UACGCAC (DNA:RNA)
RNA: B20 RNA with C25U, U27C, C28G, U29C, C30A
DNA 1: CAATCTGAATTCCGGTCTCCC
DNA 2: TGGTGGCTACGACGGGATT
B22: CGGAUCG (DNA:RNA)
RNA: B20 RNA with A26G, U27G, C28A, C31G
DNA 1: CAATCTGAATTCCGGTCTCCC
DNA 2: TGGTGGCTACGACGGGATT
B23: GUAUUUC (DNA:RNA)
RNA: B20 RNA with C25G, A26U, U27A, C28U, C30U
DNA 1: CAATCTGAATTCCGGTCTCCC
DNA 2: TGGTGGCTACGACGGGATT
B24: AUGACGC (DNA:RNA)
RNA: B20 RNA with C25A, A26U, U27G, C28A, U29C, C30G
DNA 1: CAATCTGAATTCCGGTCTCCC
DNA 2: TGGTGGCTACGACGGGATT
B25: UGACAUG (DNA:RNA)
RNA: B1 RNA with C26G, A28C, A30U, A31G
DNA 1: CAATCTGAATTCCGGTCTCCC
DNA 2: TGGTGGCTACGACGGGATT
B26: AGAGAGC (DNA:RNA)
RNA: B1 RNA with U25A, C26G, A28G, A30G, A31C
DNA 1: CAATCTGAATTCCGGTCTCCC
DNA 2: TGGTGGCTACGACGGGATT
B27: GAGCAGC (DNA:RNA)
RNA: B20 RNA with C25G, U27G, U29A, C30G
DNA 1: CAATCTGAATTCCGGTCTCCC
DNA 2: TGGTGGCTACGACGGGATT
B28: GGACACG (DNA:RNA)
RNA: B20 RNA with C25G, A26G, U27A, U29A, C31G
DNA 1: CAATCTGAATTCCGGTCTCCC
DNA 2: TGGTGGCTACGACGGGATT
B29: ACUUGCU (DNA:RNA)
RNA: B20 RNA with C25A, A26C, C28U, U29G, C31U
DNA 1: CAATCTGAATTCCGGTCTCCC
DNA 2: TGGTGGCTACGACGGGATT
B30: UCCCAAC (DNA:RNA)
RNA: B1 RNA with A27C, A28C, A31C
DNA 1: CAATCTGAATTCCGGTCTCCC
DNA 2: TGGTGGCTACGACGGGATT
B31: AGAAACG (DNA:RNA)
RNA: B1 RNA with U25A, C26G, A30C, A31G
DNA 1: CAATCTGAATTCCGGTCTCCC
DNA 2: TGGTGGCTACGACGGGATT

Target: T1, RBFOX1 RRM RbFoxmut (Fox-RRM*)
Experiment: EMSA; HiTS-Eq, 1 nM pool, 10 min; buffer printed only for the single-RNA assays: 10 mM Tris pH 7.5, 150 mM NaCl, 3.4 mM EDTA, 0.001% NP-40, 30 C
Conditions: tags: His6 N-terminal (pET28a); label: 5' 32P
Outline: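 Purified wild-type or mutant RbFox RRM at increasing concentrations was equilibrated with 1 nM of 5′-radiolabelled RNA carrying 7 randomized nucleotides for 10 min in 50 µL. Unbound RNA was separated by 8% native PAGE and sequenced. Relative association constants came from read-count changes of each RNA species compared with the control reaction, normalised to the cognate motif.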

Row | Binder | binding signal
1 | B1 | 0.111 KA relative to UGCAUGU
2 | B2 | 0.0913 KA relative to UGCAUGU
3 | B3 | 0.132 KA relative to UGCAUGU
4 | B4 | 0.0869 KA relative to UGCAUGU
5 | B5 | 0.0933 KA relative to UGCAUGU
6 | B6 | 0.113 KA relative to UGCAUGU
7 | B7 | 0.0718 KA relative to UGCAUGU
8 | B8 | 0.0909 KA relative to UGCAUGU
9 | B9 | 0.147 KA relative to UGCAUGU
10 | B10 | 0.0892 KA relative to UGCAUGU
11 | B11 | 0.0586 KA relative to UGCAUGU
12 | B12 | 0.0906 KA relative to UGCAUGU
13 | B13 | 0.0863 KA relative to UGCAUGU
14 | B14 | 0.119 KA relative to UGCAUGU
15 | B15 | 0.0927 KA relative to UGCAUGU
16 | B16 | 0.0665 KA relative to UGCAUGU

Row | Binder | binding signal
17 | B17 | 0.0627 KA relative to UGCAUGU
18 | B18 | 0.0868 KA relative to UGCAUGU
19 | B19 | 0.0679 KA relative to UGCAUGU
20 | B20 | 0.0618 KA relative to UGCAUGU
21 | B21 | 0.0773 KA relative to UGCAUGU
22 | B22 | 0.331 KA relative to UGCAUGU
23 | B23 | 0.0956 KA relative to UGCAUGU
24 | B24 | 0.0829 KA relative to UGCAUGU
25 | B25 | 0.283 KA relative to UGCAUGU
26 | B26 | 0.0906 KA relative to UGCAUGU
27 | B27 | 0.0998 KA relative to UGCAUGU
28 | B28 | 0.0595 KA relative to UGCAUGU
29 | B29 | 0.113 KA relative to UGCAUGU
30 | B30 | 0.0514 KA relative to UGCAUGU
31 | B31 | 0.11 KA relative to UGCAUGU
